# Reference: the supplement of paper PMC3334620
# Whole data set: some 33,000 sequences, median “E-score (-0.5 to 0.5)” near -0.054, cut for the highest 2% near 0.35. The list shows a part of the results.
# Target: T1, Stb5 (UniProt P38699)
# T1 sequence: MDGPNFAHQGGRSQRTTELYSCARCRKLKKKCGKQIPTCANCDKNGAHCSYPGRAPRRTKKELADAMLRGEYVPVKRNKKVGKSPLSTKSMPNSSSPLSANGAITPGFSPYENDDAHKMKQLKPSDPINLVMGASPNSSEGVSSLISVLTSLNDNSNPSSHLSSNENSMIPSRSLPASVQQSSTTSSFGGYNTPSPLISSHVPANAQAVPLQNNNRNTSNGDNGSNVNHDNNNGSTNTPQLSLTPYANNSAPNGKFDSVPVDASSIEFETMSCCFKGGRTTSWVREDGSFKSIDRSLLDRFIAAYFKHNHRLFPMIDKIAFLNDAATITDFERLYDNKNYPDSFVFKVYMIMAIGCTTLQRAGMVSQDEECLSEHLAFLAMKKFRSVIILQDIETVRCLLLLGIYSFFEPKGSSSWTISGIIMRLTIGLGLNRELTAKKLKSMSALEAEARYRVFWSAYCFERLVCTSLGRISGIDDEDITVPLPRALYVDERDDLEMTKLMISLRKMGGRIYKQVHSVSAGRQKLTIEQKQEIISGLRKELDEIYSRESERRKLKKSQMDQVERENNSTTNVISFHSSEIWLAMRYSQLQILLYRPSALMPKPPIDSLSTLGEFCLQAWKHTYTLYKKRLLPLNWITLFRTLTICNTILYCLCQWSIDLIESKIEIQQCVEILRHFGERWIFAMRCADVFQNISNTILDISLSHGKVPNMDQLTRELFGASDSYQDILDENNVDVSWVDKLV
# Assay: PBM E-score (8-mer binding enrichment) (E-score (-0.5 to 0.5)); higher = stronger / more preferred TF binding; most listed sequences are background and not binding sites
# Settings: protein concentration: 200 nM; construct: GST-full length
# Summary of the method: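 Universal all-10-mer Agilent arrays, double-stranded by primer extension on fresh or once-stripped slides, were probed with about 100-200 nM GST-tagged yeast transcription factors made by PURExpress. Fluorescent anti-GST detected bound protein, and masliner normalised the scans. E-scores from the Universal PBM Analysis Suite were given to each ungapped eight-base word pooled with its reverse complement.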
row,Sequence,PBM E-score
1,ACCATAGC,-0.253
2,ACACGTTA,-0.346
3,AAAAATTC,-0.171
4,AAAAGCAC,0.0623
5,CGGTGCAG,0.134
6,GGACCCCA,-0.188
7,ACCTCTAC,-0.172
8,GAGAGGTA,-0.153
9,CAACTTTC,-0.0192
10,GTTAACAA,0.121
11,AACAGTTC,-0.211
12,CTCTTTGC,-0.146
13,TATCTGAA,-0.136
14,CTCGACCC,-0.245
15,AAGACGGA,0.182
16,GAAGAGAA,-0.0777
17,ATAGGAGC,0.0257
18,AATTTCGA,-0.116
19,CTAGACAC,0.034
20,GTAGATTA,0.0831
21,AAAAACCG,0.24
22,TGCAGGAA,-0.102

row,Sequence,PBM E-score
1,CCTAATTC,0.00584
2,ATAGGCTA,-0.154
3,AGTAAACG,-0.0142
4,AGATGCCT,-0.377
5,CAAATCAC,-0.0836
6,CGATGAAA,0.0142
7,CATATGGG,-0.0625
8,ACTCGACG,-0.0726
9,CCTCGGAC,0.205
10,GCCTCCGC,0.139
11,GTCGCACA,-0.0231
12,GCGCCAAA,0.0743
13,GCCGTCCC,0.112
14,CCGATTAA,0.282
15,AATACTTC,-0.0945
16,CGTAACCC,0.181
17,CATTGTCC,0.111
18,ACATCGTC,-0.0619
19,AACAGGAA,-0.207
20,CATCTGTC,-0.102
21,CCCAAATC,-0.189
22,CCAGTCCA,-0.132

row,Sequence,PBM E-score
1,ATCACTCG,-0.151
2,CCAGGATC,-0.143
3,GTTTTAGA,-0.0303
4,CCTAAAGG,-0.00265
5,AGCTGCAG,-0.139
6,AGCAGGTC,-0.208
7,AGACTGCA,-0.243
8,AAGCACTA,-0.143
9,TATTGGCA,-0.163
10,CACTAGGA,-0.0578
11,GCTCCTTA,-0.0796
12,AACTACGA,-0.189
13,TCGCCCCA,-0.317
14,CCACTACC,0.0208
15,CCTCCGAC,0.294
16,GGAGCGCC,0.0979
17,CCCGAGCC,0.162
18,CTAACACA,-0.0526
19,ATGTTAGA,-0.295
20,CTATTATA,0.0578
21,ACAACTTA,-0.175
22,AGACAGGG,-0.161

row,Sequence,PBM E-score
1,ATAACAAA,-0.00919
2,ACCTTGTG,-0.177
3,GTCCGTTA,0.355
4,CGAATAGC,0.0153
5,AAAATACA,-0.0908
6,GAAGGGCA,-0.242
7,CAGTCACC,0.0656
8,AGGATTTC,-0.16
9,ACGGGTCT,0.205
10,CCTGTCAG,-0.247
11,AAGTAGCA,-0.187
12,ACTGCGCC,-0.108
13,ATGGAACC,0.0868
14,AAATTAAG,-0.0785
15,AGTTATTA,-0.0205
16,CTATAACC,0.0848
17,CCATGCGG,0.076
18,CTTCCTGC,-0.17
19,CAGTGCTA,-0.111
20,CCCCCACG,-0.128
